Where “and” joins values, the source holds several entries; their conditions need not be identical. Equal values may be shown once. Where a name gives a salt, the structure may show the parent alone. Screen size: about 1,800 compounds; about 50 (3%) showed activity. Some of the results follow.
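Note: fibroblasts sorted 14 days after bleomycin, GFP+ and GFP− mixed 1:1 in 384-well plates (GFP− as in-well control), imaged after Hoechst and NucView530 staining, reference wells lacked compound.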

This test concerns mouse p16Ink4a+/- lung fibroblasts (INKBRITE, bleomycin-injured). The experiment in a line: percentage of GFP+ (p16Ink4a+) fibroblasts among all cells in well; higher = less depletion of p16Ink4a+ cells, active = 20 or less. As to conditions: 1 µM; 3 days.
With `O=c1c2ccccc2oc2ccccc12` [Xanthone], the “percentage of GFP+” value was inactive: 39%.

Regarding `O=c1c2ccccc2nc2n1CCc1c-2[nH]c2ccccc12` [Rutaecarpine], the “percentage of GFP+” value is inactive: 42.2%.

With `Cc1[nH]nc2ccc(-c3cncc(OC[C@@H](N)Cc4ccccc4)c3)cc12`, the “percentage of GFP+” value is inactive: 53.6%.

Turning to `CC(C)(O)CC(=O)NCCn1ccc2ncnc(Nc3ccc(Oc4cccc(C(F)(F)F)c4)c(Cl)c3)c21`, the “percentage of GFP+” value is inactive: 53.4%.

As for `C=C[C@]1(C)C[C@@H](OC(=O)CS[C@@H]2C[C@H]3CC[C@@H](C2)N3C)[C@]2(C)[C@H](C)CC[C@]3(CCC(=O)[C@H]32)[C@@H](C)[C@@H]1O` [Retapamulin], the “percentage of GFP+” value was inactive: 50%.

As for `Cc1cn([C@H]2C[C@H](N=[N+]=[N-])[C@@H](CO)O2)c(=O)[nH]c1=O` [Zidovudine], the “percentage of GFP+” value is inactive: 41.7%.

In the case of `C#Cc1cccc(Nc2ncnc3cc(OCCOC)c(OCCO)cc23)c1`, the “percentage of GFP+” value is inactive: 54.2%.

Turning to `Clc1ccc2c(c1)CCc1cccnc1C2=C1CCNCC1` [Desloratadine], the “percentage of GFP+” value is inactive: 52.1%.

In the case of `Oc1cc(O)c(Cl)cn1` [Gimeracil], the “percentage of GFP+” value was inactive: 39%.

Take `COc1ccc(CCc2nc3cc(-c4c(C)noc4C)ccc3n2C[C@H](C)N2CCOCC2)cc1Cl`: the “percentage of GFP+” value was inactive: 41%.

In the case of `Cc1c[nH]c(-c2cnc(NCCNc3ccc(C#N)cn3)nc2-c2ccc(Cl)cc2Cl)n1`, the “percentage of GFP+” value was inactive: 41.3%.

`C=C1CC[C@H](O)C/C1=C/C=C1\CCC[C@]2(C)[C@@H]([C@H](C)CCCC(C)C)CC[C@@H]12` [Cholecalciferol]: the “percentage of GFP+” value was inactive: 45.1%.

For the compound `CCOC(=O)c1ncn2c1CN(C)C(=O)c1cc(F)ccc1-2` [Flumazenil], the “percentage of GFP+” value was inactive: 41.5%.

For the compound `CC1(C)S[C@@H]2[C@H](NC(=O)Cc3ccccc3)C(=O)N2[C@H]1C(=O)O` [Benzylpenicillin], the “percentage of GFP+” value is inactive: 41%.

Turning to `CC(C)(C)c1cc(NC(=O)Nc2ccc(-c3cn4c(n3)sc3cc(OCCN5CCOCC5)ccc34)cc2)no1` [Quizartinib], the “percentage of GFP+” value is inactive: 20.8%.

Turning to `CCc1cnn2c(NCc3ccc[n+]([O-])c3)cc(N3CCCC[C@H]3CCO)nc12` [Dinaciclib], the “percentage of GFP+” value was active: 13%.

For `Cc1cc(=O)oc2c(C=O)c(O)ccc12`, the “percentage of GFP+” value was inactive: 48.1%.

With `C=CC(C)(O)CC[C@@H]1[C@@]2(C)CCCC(C)(C)C2CC[C@@]1(C)O` (stereo not given in full) [Sclareol], the “percentage of GFP+” value was inactive: 43.2%.

As for `COc1ccc(C2(C#N)CCC(C(=O)O)CC2)cc1OC1CCCC1` (stereo not given) [Cilomilast], the “percentage of GFP+” value was inactive: 36.1%.

For the compound `O=C1CCC(N2C(=O)c3ccccc3C2=O)C(=O)N1` (stereo not given) [Thalidomide], the “percentage of GFP+” value was inactive: 41%.

With `Nc1nccc(Oc2ccc(NC(=O)c3cncc(-c4ccc(F)cc4)c3O)cc2F)c1Cl`, the “percentage of GFP+” value is inactive: 49.5%.

Consider `O=S(=O)(c1ccccc1)c1cnc2c(N3CCNCC3)cccc2c1`, for which the “percentage of GFP+” value is inactive: 46.6%.

For `CC(C)(C)C(=O)C(Oc1ccc(Cl)cc1)n1ccnc1` (stereo not given) [Climbazole], the “percentage of GFP+” value was inactive: 53.5%.

Take `CC(C)(O)c1ccccc1CC[C@@H](SCC1(CC(=O)O)CC1)c1cccc(/C=C/c2ccc3ccc(Cl)cc3n2)c1` [Montelukast]: the “percentage of GFP+” value is inactive: 45.2%.

In the case of `CCCc1cc(C(N)=S)ccn1` [Protionamide, Ektebin], the “percentage of GFP+” value is inactive: 43.9%.

As to `COc1ccc(S(=O)(=O)Nc2cccnc2Nc2ccc(O)cc2)cc1`, the “percentage of GFP+” value is inactive: 23%.

As for `C[C@H]1[C@H](OC(=O)CCC(=O)O)O[C@@H]2O[C@@]3(C)CC[C@H]4[C@H](C)CC[C@@H]1[C@@]24OO3` [Artesunate], the “percentage of GFP+” value is inactive: 29.5%.

Take `Cc1cccc(Nc2ccccc2C(=O)O)c1C` [Mefenamic Acid]: the “percentage of GFP+” value was inactive: 48.5%.

Turning to `C[C@@H]1CN(c2c(F)c(N)c3c(=O)c(C(=O)O)cn(C4CC4)c3c2F)C[C@H](C)N1` [Sparfloxacin], the “percentage of GFP+” value was inactive: 37.7%.

As for `COc1cc2c(c(OC)c1OC)-c1c(cc3c(c1OC)OCO3)C[C@@H](C)[C@@H](C)C2` [Schisandrin B], the “percentage of GFP+” value was inactive: 46.8%.

On to `COc1ccc(COc2cc3oc(=O)c4cc(C(C)O)ccc4c3cc2OC)cc1` (stereo not given) [Palomid], for which the “percentage of GFP+” value was inactive: 45.4%.

As to `Cc1cc(O)nc(S)n1` [Methylthiouracil], the “percentage of GFP+” value was inactive: 48.2%.

As for `CC[C@H](C)C(=O)O[C@H]1C[C@H](O)C=C2C=C[C@H](C)[C@H](CC[C@@H](O)C[C@@H](O)CC(=O)O)[C@H]21` [Pravastatin], the “percentage of GFP+” value was inactive: 57.1%.

Consider `CCN(CC)CCCCNc1ncc2cc(-c3cc(OC)cc(OC)c3)c(NC(=O)NC(C)(C)C)nc2n1`, for which the “percentage of GFP+” value was inactive: 43.9%.

As for `C=C1C[C@@]2(O)O[C@@]3(C[C@H]2C(C)C)[C@@H](C)CC[C@@H]13` [Curcumol], the “percentage of GFP+” value was inactive: 40.5%.

In the case of `Nc1nc(Nc2ccc(S(N)(=O)=O)cc2)nn1C(=O)c1c(F)cccc1F`, the “percentage of GFP+” value was inactive: 53.6%.

Take `CC(C)CC(=O)Nc1[nH]nc2c1CN(C(=O)C1CCN(C)CC1)C2(C)C`: the “percentage of GFP+” value is inactive: 35.4%.

Consider `CCOC(=O)[C@H](CCc1ccccc1)N[C@@H](C)C(=O)N1[C@H](C(=O)O)C[C@@H]2CCC[C@@H]21` [Ramipril], for which the “percentage of GFP+” value is inactive: 38.7%.

For the compound `OCCN1C[C@H](O)[C@@H](O)[C@H](O)[C@H]1CO` [Miglitol], the “percentage of GFP+” value is inactive: 41.2%.

With `CC(=O)OCC[N+](C)(C)C` [Acetylcholine], the “percentage of GFP+” value was inactive: 41.3%.

Turning to `Cc1c(C(=O)NN2CCCCC2)nn(-c2ccc(Cl)cc2Cl)c1-c1ccc(I)cc1`, the “percentage of GFP+” value was inactive: 42.4%.

Take `C[C@]12CCC(=O)C=C1CC[C@@H]1[C@@H]2[C@@H](O)C[C@@]2(C)[C@H]1CC[C@]2(O)C(=O)CO` [Hydrocortisone]: the “percentage of GFP+” value is inactive: 38.5%.

In the case of `O=C(CCCN1CCC(O)(c2ccc(Cl)cc2)CC1)c1ccc(F)cc1` [Haloperidol], the “percentage of GFP+” value was inactive: 33.8%.

On to `COc1c(C)c2c(c(O)c1C/C=C(\C)CCC(=O)OCCN1CCOCC1)C(=O)OC2` [Mycophenolate Mofetil], for which the “percentage of GFP+” value is inactive: 24%.

On to `COC(=O)c1ccc2c(/C(=N/c3ccc(N(C)C(=O)CN4CCN(C)CC4)cc3)c3ccccc3)c(O)[nH]c2c1` [Nintedanib], for which the “percentage of GFP+” value is inactive: 25.4%.

In the case of `COc1ccc(-c2oc3c(CC=C(C)C)c(OC4O[C@H](CO)[C@@H](O)[C@H](O)[C@H]4O)cc(O)c3c(=O)c2OC2O[C@@H](C)[C@H](O)[C@@H](O)[C@H]2O)cc1` (stereo not given in full) [Icariin], the “percentage of GFP+” value was inactive: 50.1%.

Take `CC1=C(/C=C/C(C)=C\C=C\C(C)=C/C(=O)O)C(C)(C)CCC1` [Isotretinoin]: the “percentage of GFP+” value was inactive: 38.7%.

`CN(C)c1cc(NC(=O)CNC(C)(C)C)c(O)c2c1C[C@H]1C[C@H]3[C@H](N(C)C)C(=O)C(C(N)=O)=C(O)[C@@]3(O)C(=O)C1=C2O` [Tigecycline]: the “percentage of GFP+” value is inactive: 44.9%.

On to `CCOC(=O)Nc1ccc(NCc2ccc(F)cc2)nc1N` [Flupirtine], for which the “percentage of GFP+” value was inactive: 48.5%.

Take `Brc1c(NC2=NCCN2)ccc2nccnc12` [Brimonidine]: the “percentage of GFP+” value was inactive: 48.4%.

As for `CCC(CC)CC1(C(=O)Nc2ccccc2SC(=O)C(C)C)CCCCC1` [Dalcetrapib], the “percentage of GFP+” value was inactive: 37.6%.

Turning to `CC(=O)O[C@]1(C(C)=O)CC[C@H]2[C@@H]3C[C@H](C)C4=CC(=O)CC[C@]4(C)[C@H]3CC[C@@]21C` [Medroxyprogesterone Acetate], the “percentage of GFP+” value was inactive: 46.5%.

On to `O=S(=O)(NCCNC/C=C/c1ccc(Br)cc1)c1cccc2cnccc12`, for which the “percentage of GFP+” value is inactive: 44.2%.

For the compound `C[C@H](CCC(=O)O)[C@H]1CC[C@H]2[C@@H]3CC[C@@H]4C[C@H](O)CC[C@]4(C)[C@H]3CC[C@]12C` [Lithocholic acid], the “percentage of GFP+” value is inactive: 51.6%.

As for `NC(CO)C(=O)NNCc1ccc(O)c(O)c1O` (stereo not given) [Benserazide], the “percentage of GFP+” value was inactive: 43%.

With `Nc1nc(O)c2ncn(CCC(CO)CO)c2n1` [Penciclovir], the “percentage of GFP+” value was inactive: 46.8%.

For the compound `CC1=C(/C=C/C(C)=C/C=C/C(C)=C/C(=O)O)C(C)(C)CCC1` [Tretinon, Tretinoin], the “percentage of GFP+” value was inactive: 36.4%.

On to `O=C1Nc2ccc(I)cc2/C1=C/c1cc(Br)c(O)c(Br)c1`, for which the “percentage of GFP+” value is inactive: 44.9%.

For `Cc1[nH]c(/C=C2\C(=O)Nc3ccc(S(=O)(=O)N(C)c4cccc(Cl)c4)cc32)c(C)c1C(=O)N1CCN(C)CC1`, the “percentage of GFP+” value is inactive: 53.1%.

As to `CC(C(=O)O)c1ccc(C(=O)c2cccs2)cc1` (stereo not given) [Suprofen], the “percentage of GFP+” value is inactive: 38.5%.

Consider `CCOc1cc2ncc(C#N)c(Nc3ccc(OCc4ccccn4)c(Cl)c3)c2cc1NC(=O)/C=C/CN(C)C` [Neratinib], for which the “percentage of GFP+” value is inactive: 39.2%.

Consider `Fc1ccc([C@@H]2CCNC[C@H]2COc2ccc3c(c2)OCO3)cc1` [Paroxetine], for which the “percentage of GFP+” value was inactive: 42.3%.

Turning to `Cn1c(=O)c2nc[nH]c2n(C)c1=O` [Aminophylline, Theophylline], the “percentage of GFP+” value is inactive: 44.7%.

In the case of `CCn1cc(C(=O)O)c(=O)c2cc(F)c(N3CCNCC3)nc21` [Enoxacin], the “percentage of GFP+” value was inactive: 39%.

On to `CN[C@H]1CC[C@@H](c2ccc(Cl)c(Cl)c2)c2ccccc21` [Sertraline], for which the “percentage of GFP+” value was inactive: 51.8%.

As to `CCc1c2c(nc3ccc(OC(=O)N4CCC(N5CCCCC5)CC4)cc13)-c1cc3c(c(=O)n1C2)COC(=O)[C@]3(O)CC` [Irinotecan, Irinotecan Hydrochloride (trihydrate)], the “percentage of GFP+” value was inactive: 36.1% and inactive: 37.1%.

For `CO/C(O)=C1\C(C)=NC(C)=C(C(=O)OCC(C)C)C1c1ccccc1[N+](=O)[O-]` (stereo not given) [Nisoldipine], the “percentage of GFP+” value was inactive: 42.2%.

With `O=C(Nc1cccc(C(F)(F)F)c1)Nc1cc(S(=O)(=O)NC2CC2)ccc1-c1ccsc1`, the “percentage of GFP+” value was inactive: 42.2%.

For the compound `CCN1CCN(Cc2ccc(Nc3ncc(F)c(-c4cc(F)c5nc(C)n(C(C)C)c5c4)n3)nc2)CC1`, the “percentage of GFP+” value is inactive: 30.6%.

Take `CO[C@H]1/C=C/O[C@@]2(C)Oc3c(C)c(O)c4c(O)c(c(/C=N/N5CCN(C6CCCC6)CC5)c(O)c4c3C2=O)NC(=O)/C(C)=C\C=C\[C@H](C)[C@H](O)[C@@H](C)[C@@H](O)[C@@H](C)[C@H](OC(C)=O)[C@@H]1C` [Rifapentine]: the “percentage of GFP+” value was inactive: 40.7%.

The values are drawn from the supplement of paper PMC11060735.
